Laboratory results reported in article PMC6894885.
No constants are given. Whether binding was seen depends on the method and setting. For some assays here: In cells and extracts the contact can be indirect. Some entries that bind do so weakly or less than the wild type.

Chains of the proteins cited; added tags and fusions are not shown.
UniProt Q15596: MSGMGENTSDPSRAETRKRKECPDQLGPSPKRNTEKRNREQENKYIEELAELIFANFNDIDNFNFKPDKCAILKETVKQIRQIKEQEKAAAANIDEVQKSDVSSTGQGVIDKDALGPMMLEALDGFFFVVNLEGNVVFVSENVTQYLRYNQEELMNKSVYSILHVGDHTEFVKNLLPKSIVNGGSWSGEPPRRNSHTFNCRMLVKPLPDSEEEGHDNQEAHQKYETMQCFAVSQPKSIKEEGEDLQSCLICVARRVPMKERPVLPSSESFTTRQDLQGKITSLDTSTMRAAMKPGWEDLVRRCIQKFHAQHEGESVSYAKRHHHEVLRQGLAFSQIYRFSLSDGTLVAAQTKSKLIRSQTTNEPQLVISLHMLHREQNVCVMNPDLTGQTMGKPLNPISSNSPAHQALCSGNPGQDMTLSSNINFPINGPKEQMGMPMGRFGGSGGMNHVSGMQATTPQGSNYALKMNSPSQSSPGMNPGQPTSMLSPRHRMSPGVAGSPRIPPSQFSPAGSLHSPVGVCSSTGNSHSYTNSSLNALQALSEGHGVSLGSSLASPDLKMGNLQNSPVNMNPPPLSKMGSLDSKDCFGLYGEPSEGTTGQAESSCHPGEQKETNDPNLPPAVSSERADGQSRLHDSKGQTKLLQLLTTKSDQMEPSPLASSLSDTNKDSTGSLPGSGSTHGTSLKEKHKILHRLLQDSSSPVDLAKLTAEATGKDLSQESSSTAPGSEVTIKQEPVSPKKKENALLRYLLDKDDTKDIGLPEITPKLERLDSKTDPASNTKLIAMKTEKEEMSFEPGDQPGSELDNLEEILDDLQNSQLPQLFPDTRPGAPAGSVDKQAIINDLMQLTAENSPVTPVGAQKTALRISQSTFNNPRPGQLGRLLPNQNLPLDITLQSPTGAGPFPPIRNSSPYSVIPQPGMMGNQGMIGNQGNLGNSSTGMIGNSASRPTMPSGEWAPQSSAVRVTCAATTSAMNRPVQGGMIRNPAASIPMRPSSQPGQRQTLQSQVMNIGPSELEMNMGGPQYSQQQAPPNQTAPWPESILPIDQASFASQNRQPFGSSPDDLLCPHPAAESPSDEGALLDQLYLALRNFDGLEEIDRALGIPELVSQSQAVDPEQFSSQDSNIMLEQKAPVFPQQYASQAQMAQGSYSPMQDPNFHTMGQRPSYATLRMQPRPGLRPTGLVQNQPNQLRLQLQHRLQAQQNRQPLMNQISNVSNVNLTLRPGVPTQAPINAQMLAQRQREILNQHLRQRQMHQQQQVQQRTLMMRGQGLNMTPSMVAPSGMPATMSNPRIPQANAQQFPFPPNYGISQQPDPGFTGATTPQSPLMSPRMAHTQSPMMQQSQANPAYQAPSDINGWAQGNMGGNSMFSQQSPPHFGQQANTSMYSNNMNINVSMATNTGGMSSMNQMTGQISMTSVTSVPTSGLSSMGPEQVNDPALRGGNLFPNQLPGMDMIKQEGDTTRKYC

Assays:
[1] = target: Flag-tagged RTA-△PARS-II (Kaposi's sarcoma-associated herpesvirus (KSHV)) (UniProt F5HCV3); assay: co-IP
GST-fused NCOA2 (human) = GST-fused NCOA2 (human) (UniProt Q15596); assay: pull-down; both purified

| Substance | binding [1] | binding (GST-fused NCOA2 (human)) |
| --- | --- | --- |
| HA-tagged NCOA2, full length (from UniProt Q15596 1-1464) | no binding | – |
| His-tagged RTA deletion His-C544-691 (from UniProt F5HCV3 544-691) (domain or fragment) | – | binds |
